Measured values as given in patent US20210340213A1 (BEIJING VDJBIO, published 2021).
Read-outs that look alike come from different tables or passages of the source. Values belong to the binder of their own block, whether it stands above or below them.

Columns and labels:
[1] = target: T1, CD80 (UniProt P33681 35-242, limits assumed); assay: SPR BIAcore 3000, 25 C; CTLA4-Ig on chip, CD80 analyte
T1 construct: also called B7-1
T1 sequence (looked up): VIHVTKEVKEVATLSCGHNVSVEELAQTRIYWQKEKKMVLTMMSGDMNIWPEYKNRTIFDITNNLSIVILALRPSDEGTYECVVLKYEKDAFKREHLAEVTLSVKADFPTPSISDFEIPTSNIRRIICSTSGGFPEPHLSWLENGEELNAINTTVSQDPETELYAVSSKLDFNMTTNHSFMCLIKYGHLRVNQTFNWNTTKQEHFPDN

[2] = target: T2, CD86 (UniProt P42081 24-247, limits assumed); assay: SPR BIAcore 3000, 25 C; CTLA4-Ig on chip, CD86 analyte
T2 construct: also called B7-2
T2 sequence (looked up): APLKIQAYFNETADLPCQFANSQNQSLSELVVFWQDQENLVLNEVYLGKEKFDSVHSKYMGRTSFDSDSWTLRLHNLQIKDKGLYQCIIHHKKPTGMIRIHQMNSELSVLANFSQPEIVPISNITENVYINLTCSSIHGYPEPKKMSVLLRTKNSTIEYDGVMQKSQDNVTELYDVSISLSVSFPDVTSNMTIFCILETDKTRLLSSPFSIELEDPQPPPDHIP

[3] = target: T1, CD80; assay: SPR BIAcore 3000, 25 C; CTLA4-Ig on chip, CD80 analyte; remark: listed apart in the source
[4] = target: T2, CD86; assay: SPR BIAcore 3000, 25 C; CTLA4-Ig on chip, CD86 analyte; remark: listed apart in the source
[5] = target: T1, CD80; assay: SPR BIAcore 3000, 25 C; CTLA4-Ig on chip, CD80 analyte; remark: listed apart in the source
[6] = target: T2, CD86; assay: SPR BIAcore 3000, 25 C; CTLA4-Ig on chip, CD86 analyte; remark: listed apart in the source

B1: CTLA4-Ig variant 132# (Fc fusion)
chain: MHVAQPAVVLASSRGIASFVCEYESPHKANEIRVTVLRQANSQVTEVCAMTYMKGDELTFLDDPSCTGTFSGNQVNLTIQGLRAADTGLYICKVELMYPPPYYLGFGNGTQIYVIDPEPCPDSDQ[human IgG1 Fc with changes not given here]
Kd [1]: 0.425 nM
Relative affinity (KD(abatacept)/KD(variant)) [1]: 7.03
koff [1]: 0.000121 s⁻¹
kon [1]: 285000 M⁻¹ s⁻¹
Kd [2]: 0.27 nM
Relative affinity (KD(abatacept)/KD(variant)) [2]: 25.9
koff [2]: 0.000117 s⁻¹
kon [2]: 434000 M⁻¹ s⁻¹

B2: CTLA4-Ig variant 96# (Fc fusion)
chain: MHVAQPAVVLASSRGIASFVCEYASPDKKATEVRVTVLRQADSQVTEVCAATYMMGNELTFLDDSICTFTSSGNQVNLTIQGLRAMDTGLYICKVELMYPPPYYLGIGNGTQIYVIDPEPCPDSDQ[human IgG1 Fc with changes not given here]
Kd [3]: 1.69 nM
Relative affinity (KD(abatacept)/KD(variant)) [3]: 6.33
koff [3]: 0.000427 s⁻¹
kon [3]: 253000 M⁻¹ s⁻¹
Kd [4]: 15.2 nM
Relative affinity (KD(abatacept)/KD(variant)) [4]: 5.45
koff [4]: 0.0539 s⁻¹
kon [4]: 3.55e+06 M⁻¹ s⁻¹
Kd [1]: 0.224 nM
Relative affinity (KD(abatacept)/KD(variant)) [1]: 13.3
koff [1]: 9.02e-05 s⁻¹
kon [1]: 403000 M⁻¹ s⁻¹
Kd [2]: 4.55 nM
Relative affinity (KD(abatacept)/KD(variant)) [2]: 1.54
koff [2]: 0.00302 s⁻¹
kon [2]: 663000 M⁻¹ s⁻¹

B4: CTLA4-Ig variant 127# (Fc fusion)
chain: MHVAQPAVVLASSRGIASFVCEYASPDKKATEVRVTVLRQADSQVTEVCAATYMMGNELTFLDDSICTFTSSGNQVNLTIQGLRAMDTGLYICKVELMYPPPYYLGIGNGTQIYVIDPEPCPHSDQ[human IgG1 Fc with changes not given here]
Kd [1]: 0.165 nM
Relative affinity (KD(abatacept)/KD(variant)) [1]: 18.1
koff [1]: 6.78e-05 s⁻¹
kon [1]: 411000 M⁻¹ s⁻¹
Kd [2]: 4.25 nM
Relative affinity (KD(abatacept)/KD(variant)) [2]: 1.64
koff [2]: 0.00296 s⁻¹
kon [2]: 695000 M⁻¹ s⁻¹

B5: CTLA4-Ig variant 84# (Fc fusion)
chain: MHVAQPAVVLASSRGIASFVCEYASPDKKATEVRVTVLRQADSQVTEVCAATYMMGNELTFLDDSICTGTSSGNQVNLTIQGLRAMDTGLYICKVELMYPPPYYLGIGNGTQIYVIDPEPCPDSDQ[human IgG1 Fc with changes not given here]
Kd [5]: 6.04 nM
Relative affinity (KD(abatacept)/KD(variant)) [5]: 3.49
koff [5]: 0.00235 s⁻¹
kon [5]: 389000 M⁻¹ s⁻¹
Kd [6]: 57.8 nM
Relative affinity (KD(abatacept)/KD(variant)) [6]: 4.55
koff [6]: 0.138 s⁻¹
kon [6]: 2.38e+06 M⁻¹ s⁻¹

B6: CTLA4-Ig variant 124# (Fc fusion)
chain: MHVAQPAVVLASSRGIASFVCEYASPDKKATEVRVTVLRQADSQVTEVCAATYMMGNELTFLDDSICTFTSSGNQVNLTIQGLRAMDTGLYICKVELMYPPPYYLGIGNGTQIYVIDSEPCPDSDQ[human IgG1 Fc with changes not given here]
Kd [1]: 0.21 nM
Relative affinity (KD(abatacept)/KD(variant)) [1]: 14.2
koff [1]: 7.43e-05 s⁻¹
kon [1]: 354000 M⁻¹ s⁻¹
Kd [2]: 4.95 nM
Relative affinity (KD(abatacept)/KD(variant)) [2]: 1.41
koff [2]: 0.00324 s⁻¹
kon [2]: 654000 M⁻¹ s⁻¹

Continued, values first:

Kd [1]: 0.093 nM
Relative affinity (KD(abatacept)/KD(variant)) [1]: 32.1
koff [1]: 2.99e-05 s⁻¹
kon [1]: 322000 M⁻¹ s⁻¹
Kd [2]: 4.35 nM
Relative affinity (KD(abatacept)/KD(variant)) [2]: 1.61
koff [2]: 0.00279 s⁻¹
kon [2]: 642000 M⁻¹ s⁻¹
B3: CTLA4-Ig variant 134# (Fc fusion)
chain: MHVAQPAVVLASSRGIASFVCEYASPDKKATEVRVTVLRQADSQVTEVCAATYMMGNELTFLDDSICTFTSSGNQVNLTIQGLRAMDTGLYICMVELMYPPPYYLGIGNGTQIYVIDPEPCPDSDQ[human IgG1 Fc with changes not given here]

Kd [1]: 0.0425 nM
Relative affinity (KD(abatacept)/KD(variant)) [1]: 70.3
koff [1]: 1.41e-05 s⁻¹
kon [1]: 331000 M⁻¹ s⁻¹
Kd [2]: 4.13 nM
Relative affinity (KD(abatacept)/KD(variant)) [2]: 1.69
koff [2]: 0.00229 s⁻¹
kon [2]: 554000 M⁻¹ s⁻¹
B7: CTLA4-Ig variant 122# (Fc fusion)
chain: MHVAQPAVVLASSRGIASFVCEYASPDKKATEVRVTVLRQADSQVTEVCAATYMMGNELTFLDDSICTFTSSGNQVNVTIQGLRAMDTGLYICKVELMYPPPYYLGIGNGTQIYVIDPEPCPDSDQ[human IgG1 Fc with changes not given here]

Kd [1]: 0.13 nM
Relative affinity (KD(abatacept)/KD(variant)) [1]: 23
koff [1]: 5.04e-05 s⁻¹
kon [1]: 389000 M⁻¹ s⁻¹
Kd [2]: 4.09 nM
Relative affinity (KD(abatacept)/KD(variant)) [2]: 1.71
koff [2]: 0.00274 s⁻¹
kon [2]: 670000 M⁻¹ s⁻¹
B8: CTLA4-Ig variant 120# (Fc fusion)
chain: MHVAQPAVVLASSRGIASFVCEYASPDKKATEVRVTVLRQTDSQVTEVCAATYMMGNELTFLDDSICTFTSSGNQVNLTIQGLRAMDTGLYICKVELMYPPPYYLGIGNGTQIYVIDPEPCPDSDQ[human IgG1 Fc with changes not given here]
